Experimental data: the BET-seq Pho4 binding data (Le et al. 2018)
The list shows a part of the results. The energies were worked out here from pooled read counts, against the library average; single values are noisy.

biological target: T1, Pho4 (S. cerevisiae) (UniProt P07270); experiment: relative binding free energy (BET-seq); higher = weaker binding; conditions: reference: library average
T1 sequence: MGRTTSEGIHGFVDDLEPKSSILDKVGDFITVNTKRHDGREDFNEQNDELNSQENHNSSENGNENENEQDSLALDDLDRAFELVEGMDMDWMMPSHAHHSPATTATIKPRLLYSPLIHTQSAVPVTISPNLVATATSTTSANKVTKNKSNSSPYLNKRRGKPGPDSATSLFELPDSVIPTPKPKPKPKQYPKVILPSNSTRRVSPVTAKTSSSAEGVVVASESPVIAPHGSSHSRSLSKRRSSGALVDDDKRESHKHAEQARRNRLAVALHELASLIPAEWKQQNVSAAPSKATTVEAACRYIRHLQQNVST

| Sequence | relative binding free energy [kcal/mol] |
| --- | --- |
| GAGTTCACGTGTGTAA | 0.28 |
| TTGGTCACGTGAGGAT | 0.32 |
| ACTTACACGTGGGTTT | -0.04 |
| GAAGGCACGTGGAAGG | 0.01 |
| TGGTTCACGTGTAAAA | 0.35 |
| TGGGCCACGTGTCGGC | 0.01 |
| GTGAGCACGTGTGACG | -0.03 |
| TACGTCACGTGGTAGG | 0.1 |
| TTTAGCACGTGACTGG | 0.06 |
| ACGTTCACGTGTATTT | 0.16 |
| GGCATCACGTGGATTT | 0.2 |
| GGGAGCACGTGTATGT | -0.09 |
| AAATGCACGTGGGTTG | -0.09 |
| TTGTGCACGTGTAACG | 0.13 |
| TTAGGCACGTGTTGGC | 0.03 |
| TGGGTCACGTGCTGGT | 0.07 |
| TATATCACGTGGTAGT | 0.09 |
| AATGGCACGTGATGTT | 0.07 |
| GGTGGCACGTGACTAG | -0.01 |
| AGGTCCACGTGTTATT | 0.08 |
| TATTTCACGTGTATTA | 0.18 |
| TATGGCACGTGGAGGC | -0.07 |
| GCTGGCACGTGCGTGT | -0.15 |

| Sequence | relative binding free energy [kcal/mol] |
| --- | --- |
| GGGGCCACGTGGTTTC | 0.06 |
| GCAAGCACGTGTTGTG | 0.02 |
| GTCTGCACGTGAGTGG | 0.23 |
| ATGAGCACGTGGAGGG | -0.2 |
| TAGTTCACGTGGTGGT | 0.31 |
| TGCGGCACGTGGAATG | -0.01 |
| TGTGCCACGTGGGGTG | -0.3 |
| AGGGGCACGTGCTGCG | -0.32 |
| GAACACACGTGTGTGG | 0.24 |
| AGAGTCACGTGGGTCT | -0.02 |
| AGTATCACGTGGAATT | 0.31 |
| TGAGGCACGTGGTACA | -0.19 |
| AGTGACACGTGGGCAT | -0.25 |
| ATCAACACGTGGGCGG | 0.02 |
| TGTTGCACGTGTTATA | -0.01 |
| GAATTCACGTGGTTAT | 0.25 |
| TTTGTCACGTGTGTCC | 0.07 |
| TAGAACACGTGAGGGT | 0.27 |
| ATGTTCACGTGAAAGT | 0.46 |
| ATGGACACGTGCATTG | 0 |
| TAGCGCACGTGGGATG | -0.24 |
| AGTTTCACGTGCGGTG | 0.31 |
| TGTAGCACGTGTGCCG | 0.04 |

| Sequence | relative binding free energy [kcal/mol] |
| --- | --- |
| GGTAGCACGTGCGAGG | -0.13 |
| AGCTTCACGTGGGTGA | -0.03 |
| TAGTACACGTGAAAGG | 0.14 |
| AGAGACACGTGCTGGG | 0.02 |
| GAGGACACGTGTAGTG | 0.15 |
| TTTGGCACGTGTCAAG | -0.03 |
| GTAAGCACGTGGCAGG | -0.15 |
| TAATTCACGTGGTAGC | 0.16 |
| GGTTGCACGTGGGACA | -0.09 |
| TAAGGCACGTGAGGTG | 0.11 |
| AGGCACACGTGGGTAA | -0.01 |
| ATTCGCACGTGATGAT | 0.11 |
| TAAGGCACGTGGTATT | -0.26 |
| GGCATCACGTGGGAGG | 0.16 |
| GTGTTCACGTGCTGGC | 0.19 |
| TTAGTCACGTGACTTG | 0.26 |
| ATTGACACGTGTAGGT | 0 |
| GAGAGCACGTGTCGGT | 0.01 |
| GGTGCCACGTGGTTTG | -0.13 |
| GTGATCACGTGTTTCT | 0.17 |
| GAGGCCACGTGCGGGG | -0.15 |
| AATGACACGTGTGGAA | 0.16 |
| AAGCGCACGTGGTCGG | -0.08 |

| Sequence | relative binding free energy [kcal/mol] |
| --- | --- |
| ACGGTCACGTGGGAAT | 0.05 |
| TGCGCCACGTGGTGTG | -0.24 |
| AATGACACGTGGTAAG | 0.03 |
| AGGCGCACGTGCGGGC | -0.16 |
| TTGGGCACGTGCCTTT | -0.26 |
| TTGAGCACGTGAATGG | 0.21 |
| AGTTACACGTGTTTAA | 0.09 |
| TGCTTCACGTGCAAGG | 0.29 |
| AGGGCCACGTGCAGGG | -0.21 |
| TATGGCACGTGGGAAC | -0.07 |
| AGGCGCACGTGGTAGC | -0.11 |
| TAGGTCACGTGAAGTC | 0.4 |
| TGGCACACGTGGGAGG | 0 |
| GGGCTCACGTGTTCGT | 0.46 |
| GTGCTCACGTGGATCG | 0.36 |
| GGAGCCACGTGTAGGT | -0.08 |
| GGTAGCACGTGTGCTT | -0.09 |
| CTAGGCACGTGGGTAT | -0.19 |
| CGTGACACGTGTGTAG | 0.11 |
| TCTTCCACGTGGGTTT | 0.08 |
| AGTATCACGTGTGAGG | 0.21 |
| AGTAACACGTGTGGGC | 0.03 |
| TTGATCACGTGTGACG | 0.26 |

| Sequence | relative binding free energy [kcal/mol] |
| --- | --- |
| GATAGCACGTGAGTTT | 0.33 |
| TCGATCACGTGGCGTG | 0.13 |
| TGTTACACGTGTGAGA | 0.18 |
| GTGTCCACGTGATGCG | 0.18 |
| GTGGGCACGTGTTTCA | -0.1 |
| TGGGTCACGTGTAAAT | 0.18 |
| TGAATCACGTGGTGCT | -0.03 |
| AGCGGCACGTGGGTGT | -0.27 |
| CTTATCACGTGGAGTG | 0.02 |
| GCGGTCACGTGGCAGT | 0.12 |
| TTATGCACGTGCATAT | -0.09 |
| CGTCTCACGTGTGGGG | 0.14 |
| CAGGGCACGTGGGGAT | -0.21 |
| TGTAGCACGTGTTTTA | -0.06 |
| GGAAGCACGTGGCGTA | 0.01 |
| AGAAGCACGTGTGTTG | -0.03 |
| GGTCGCACGTGTGGGG | -0.05 |
| ATGATCACGTGTTTCG | 0.04 |
| GACTTCACGTGTGTGG | 0.45 |
| CGGGTCACGTGATGAT | 0.28 |
| TTGTACACGTGTGTAT | 0.14 |
| GTTGCCACGTGAATGG | 0.11 |
| TCATACACGTGTGTAG | 0.05 |
